# Laboratory results: the supplement of paper PMC8728848
# This is one part of the list.
# Key:
# Experiment in all cases: glycan array binding signal (z-score within array); higher = stronger binding
# Settings in all cases: glycan notation: IUPAC condensed, linker removed
# [1] = molecular target: GalNAc3S(b1-4)[Fuc(a1-3)]GlcNAc
# Outline: (§1)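 Columns mapping to the same glycan were averaged after glycan names were converted to IUPAC-condensed notation. The data come from 3228 arrays in the Consortium for Functional Glycomics database, limited to those with an available protein sequence. Binding is reported as a within-array Z-score averaged across arrays of one protein sequence and across linkers.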
# GalNAc4S6S(b1-4)GlcNAc = molecular target: GalNAc4S6S(b1-4)GlcNAc
# Outline: as §1
# GalNAc6S(b1-4)GlcNAc = molecular target: GalNAc6S(b1-4)GlcNAc
# Outline: as §1
# Glc(a1-4)Glc = molecular target: Glc(a1-4)Glc
# Outline: as §1
# [2] = molecular target: Glc(a1-4)Glc(a1-4)Glc(a1-4)Glc
# Outline: as §1
# Glc(a1-6)Glc(a1-6)Glc = molecular target: Glc(a1-6)Glc(a1-6)Glc
# Outline: as §1
# [3] = molecular target: Glc(a1-6)Glc(a1-6)Glc(a1-6)Glc
# Outline: as §1
# Glc(b1-4)Glc = molecular target: Glc(b1-4)Glc
# Outline: as §1
# Glc(b1-6)Glc = molecular target: Glc(b1-6)Glc
# Outline: as §1
# GlcA(b1-3)Gal = molecular target: GlcA(b1-3)Gal
# Outline: as §1
# GlcA(b1-3)GlcNAc = molecular target: GlcA(b1-3)GlcNAc
# Outline: as §1
# GlcA(b1-6)Gal = molecular target: GlcA(b1-6)Gal
# Outline: as §1
# [4] = molecular target: GlcA3S(b1-3)Gal(b1-4)GlcNAc(b1-2)Man
# Outline: as §1
# [5] = molecular target: GlcA3S(b1-3)Gal(b1-4)GlcNAc(b1-3)Gal(b1-4)Glc
# Outline: as §1
# [6] = molecular target: GlcNAc(a1-3)Gal(b1-4)GlcNAc
# Outline: as §1
# [7] = molecular target: GlcNAc(a1-4)Gal(b1-3)GlcNAc
# Outline: as §1
# [8] = molecular target: GlcNAc(a1-4)Gal(b1-4)GalNAc
# Outline: as §1
# [9] = molecular target: GlcNAc(a1-4)Gal(b1-4)GlcNAc
# Outline: as §1
# [10] = molecular target: GlcNAc(a1-4)Gal(b1-4)GlcNAc(b1-3)Gal(b1-4)Glc
# Outline: as §1
# [11] = molecular target: GlcNAc(a1-4)Gal(b1-4)GlcNAc(b1-3)Gal(b1-4)GlcNAc
# Outline: as §1
# [12] = molecular target: GlcNAc(a1-4)Gal(b1-4)GlcNAc(b1-3)Gal(b1-4)GlcNAc(b1-3)Gal(b1-4)GlcNAc
# Outline: as §1
# [13] = molecular target: GlcNAc(a1-4)Gal(b1-4)GlcNAc(b1-3)Gal(b1-4)[Fuc(a1-3)]GlcNAc(b1-3)Gal(b1-4)[Fuc(a1-3)]GlcNAc
# Outline: as §1
# [14] = molecular target: GlcNAc(a1-6)Gal(b1-4)GlcNAc
# Outline: as §1
# [15] = molecular target: GlcNAc(b1-2)Gal(b1-3)GalNAc
# Outline: as §1
# [16] = molecular target: GlcNAc(b1-2)Man(a1-3)[GlcNAc(b1-2)Man(a1-6)]Man(b1-4)GlcNAc(b1-4)GlcNAc
# Outline: as §1
# [17] = molecular target: GlcNAc(b1-2)Man(a1-3)[GlcNAc(b1-2)Man(a1-6)]Man(b1-4)GlcNAc(b1-4)[Fuc(a1-6)]GlcNAc
# Outline: as §1
# [18] = molecular target: GlcNAc(b1-2)Man(a1-3)[GlcNAc(b1-4)][GlcNAc(b1-2)Man(a1-6)]Man(b1-4)GlcNAc(b1-4)GlcNAc
# Outline: as §1
# [19] = molecular target: GlcNAc(b1-2)Man(a1-3)[GlcNAc(b1-4)][GlcNAc(b1-2)Man(a1-6)]Man(b1-4)GlcNAc(b1-4)[Fuc(a1-6)]GlcNAc
# Outline: as §1
# [20] = molecular target: GlcNAc(b1-2)[GlcNAc(b1-4)]Man(a1-3)[GlcNAc(b1-2)Man(a1-6)]Man(b1-4)GlcNAc(b1-4)GlcNAc
# Outline: as §1
# [21] = molecular target: GlcNAc(b1-2)[GlcNAc(b1-4)]Man(a1-3)[GlcNAc(b1-4)][GlcNAc(b1-2)Man(a1-6)]Man(b1-4)GlcNAc(b1-4)GlcNAc
# Outline: as §1
# [22] = molecular target: GlcNAc(b1-2)[GlcNAc(b1-4)]Man(a1-3)[GlcNAc(b1-4)][GlcNAc(b1-2)[GlcNAc(b1-6)]Man(a1-6)]Man(b1-4)GlcNAc(b1-4)GlcNAc
# Outline: as §1
# [23] = molecular target: GlcNAc(b1-2)[GlcNAc(b1-4)]Man(a1-3)[GlcNAc(b1-4)][GlcNAc(b1-2)[GlcNAc(b1-6)]Man(a1-6)]Man(b1-4)GlcNAc(b1-4)[Fuc(a1-6)]GlcNAc
# Outline: as §1
# [24] = molecular target: GlcNAc(b1-2)[GlcNAc(b1-6)]Man(a1-6)[GlcNAc(b1-2)Man(a1-3)]Man(b1-4)GlcNAc(b1-4)GlcNAc
# Outline: as §1
# [25] = molecular target: GlcNAc(b1-2)[GlcNAc(b1-6)]Man(a1-6)[GlcNAc(b1-2)Man(a1-3)]Man(b1-4)GlcNAc(b1-4)[Fuc(a1-6)]GlcNAc
# Outline: as §1
# [26] = molecular target: GlcNAc(b1-2)[GlcNAc(b1-6)]Man(a1-6)[GlcNAc(b1-4)][GlcNAc(b1-2)Man(a1-3)]Man(b1-4)GlcNAc(b1-4)GlcNAc
# Outline: as §1
# GlcNAc(b1-3)Fuc = molecular target: GlcNAc(b1-3)Fuc
# Outline: as §1
# GlcNAc(b1-3)Gal = molecular target: GlcNAc(b1-3)Gal
# Outline: as §1
# [27] = molecular target: GlcNAc(b1-3)Gal(b1-3)GalNAc
# Outline: as §1
binder,measurement,setting,value
Cohesin-hMARCO (Homo sapiens) (protein) LDDLDAVRIKVDTVNAKPGDTVRIPVRFSGIPSKGIANCDFVYSYDPNVLEIIEIEPGDIIVDPNPDKSFDTAVYPDRKIIVFLFAEDSGTGAYAITKDGVFATIVAKVKEGAPNGLSVIKFVEVGGFANNDLVEQKTQFFDGGANVGDTTEPATPTTPVTTPTTTDDLDAASVRIVGSSNRGRAEVYYSGTWGTICDDEWQNSDAIVFCRMLGYSKGRALYKVGAGTGQIWLDNVQCRGTESTLWSCTKNSWGHHDCSHEEDAGVECSVHHHHHH,glycan array binding signal (z-score),[1],-0.274
same,glycan array binding signal (z-score),GalNAc4S6S(b1-4)GlcNAc,-0.303
same,glycan array binding signal (z-score),GalNAc6S(b1-4)GlcNAc,1.1
same,glycan array binding signal (z-score),Glc(a1-4)Glc,-0.037
same,glycan array binding signal (z-score),[2],-0.469
same,glycan array binding signal (z-score),Glc(a1-6)Glc(a1-6)Glc,-0.237
same,glycan array binding signal (z-score),[3],-0.553
same,glycan array binding signal (z-score),Glc(b1-4)Glc,-0.114
same,glycan array binding signal (z-score),Glc(b1-6)Glc,0.787
same,glycan array binding signal (z-score),GlcA(b1-3)Gal,-0.351
same,glycan array binding signal (z-score),GlcA(b1-3)GlcNAc,-0.363
same,glycan array binding signal (z-score),GlcA(b1-6)Gal,-0.166
same,glycan array binding signal (z-score),[4],-0.338
same,glycan array binding signal (z-score),[5],0.032
same,glycan array binding signal (z-score),[6],-0.466
same,glycan array binding signal (z-score),[7],-0.354
same,glycan array binding signal (z-score),[8],-0.39
same,glycan array binding signal (z-score),[9],-0.282
same,glycan array binding signal (z-score),[10],0.094
same,glycan array binding signal (z-score),[11],-0.328
same,glycan array binding signal (z-score),[12],-0.51
same,glycan array binding signal (z-score),[13],-0.104
same,glycan array binding signal (z-score),[14],-0.236
same,glycan array binding signal (z-score),[15],-0.478
same,glycan array binding signal (z-score),[16],-0.381
same,glycan array binding signal (z-score),[17],-0.111
same,glycan array binding signal (z-score),[18],-0.51
same,glycan array binding signal (z-score),[19],0.119
same,glycan array binding signal (z-score),[20],-0.197
same,glycan array binding signal (z-score),[21],-0.307
same,glycan array binding signal (z-score),[22],-0.082
same,glycan array binding signal (z-score),[23],-0.489
same,glycan array binding signal (z-score),[24],-0.247
same,glycan array binding signal (z-score),[25],-0.244
same,glycan array binding signal (z-score),[26],-0.456
same,glycan array binding signal (z-score),GlcNAc(b1-3)Fuc,-0.459
same,glycan array binding signal (z-score),GlcNAc(b1-3)Gal,-0.319
same,glycan array binding signal (z-score),[27],-0.463
